Screen size: about 140,000 compounds; about 240 (0.17%) were called active. The shares of active, inactive and inconclusive entries below differ from those in the screen. The call rests on the fitted dose curve; in most records, active means well fitted inhibition curve with a large enough effect; inconclusive means small, poorly fitted or top-dose-only effect; inactive means no such curve, though single readings can be large or run the other way. Potencies beside an inconclusive call are fits to weak or partial responses and may not hold up.
Assay: Primary qHTS assay for inhibitors of alpha-synuclein gene (SNCA) expression; further: nearly all actives have a fitted effect of over 45% in size
Conditions: HEK-293 SNCA-luciferase knock-in, luminescence, 24 h; series mostly up to 57.2 µM
Potency means the concentration at half of the fitted maximal effect; tags describe the fitted curve by direction and shape.

Compound	Potency
CCCCN1CC(c2nc3ccccc3n2CCCCOc2cc(C)ccc2C)CC1=O (stereo not given)	inconclusive: 39.8 µM [inhibitor, single point]
CCOC(=O)Cc1ccc(NC(=O)NCc2c(-n3cccc3)sc3c2CCCC3)cc1	inconclusive: 22.4 µM [inhibitor, partial curve, poor fit]
O=C(O)c1cccc(CN2CC(COc3ccccc3)C3(C2)CN(c2ccccc2)C3)c1 (stereo not given)	inactive
CCOCCCNC(=O)c1ccc(-n2c(-c3ccccc3)cc3c2CCCC3)cc1	inconclusive: 39.8 µM [inhibitor, single point]
COc1ccc(C)cc1C(C(=O)O)N1CCN(Cc2csc(C)n2)CC1 (stereo not given)	inconclusive: 7.94 µM [inhibitor, partial curve]
CC1CCCN(C(=O)c2cc3ccc4cccnc4c3[nH]2)C1 (stereo not given)	active: 2.24 µM
O=c1cc(-c2ccc(O)cc2)oc2cc(O)cc(O)c12	inactive
CC(=O)Nc1nc2n(n1)C(c1ccc(F)cc1)C=C(c1ccc(Cl)cc1)N2 (stereo not given)	inconclusive: 7.08 µM [inhibitor, single point]
O=C1COc2ccc(-c3ccccc3)nc2CN1Cc1ccccc1F	inactive
c1cncc(-c2nnc3n2CCN(CC2CC2)C3)c1	inconclusive: 2.82 µM [inhibitor, full curve, poor fit]
O=C(NCCc1ccccc1F)c1ccc2nnc(-c3cc(C(F)(F)F)cc(C(F)(F)F)c3)n2c1	inactive
Cc1ccccc1CN1CCc2nc(N3CCN(C)CC3)[nH]c(=O)c2CC1	inactive
C[C@H](NC(=O)c1sccc1OCc1ccc(Cl)cc1)c1ccccc1	inconclusive: 21.5 µM [inhibitor, partial curve, poor fit]
COc1ccc(-c2[nH]nc3ncc(C(=O)NCc4ccccc4)nc23)c(C)c1	inconclusive: 44.7 µM [inhibitor, partial curve, poor fit]
C[C@]1(CO)[C@H]2Cc3sc(NC(=O)c4ccc(F)cc4)nc3[C@@H](CC(=O)O)[C@]2(C)CC[C@H]1O	inactive
CCCCCOc1ccc(/C=C/C(=O)Nc2sc(C)c(C)c2C(=O)OCC)cc1OC	inconclusive: 3.55 µM [inhibitor, partial curve, poor fit]
O=C(c1ccccn1)N1C[C@@H]2C[C@H](C1)c1ccc(NS(=O)(=O)Cc3ccccc3)c(=O)n1C2	inconclusive: 2.51 µM [inhibitor, partial curve, poor fit]
CCOc1ccc(NC(=O)CCC2CCN(c3cc(NC4CC4)ncn3)CC2)cc1	inconclusive: 2 µM [inhibitor, full curve, poor fit]
Cc1cc(C(=O)Nc2ccc(C(O)[C@H]3COCC(=O)N3Cc3ccc(C(F)(F)F)cc3)cc2)n(C)n1 (stereo not given in full)	inactive
CCCn1cc(-c2ccnc(NCc3c(F)ccc(C)c3F)n2)c(C)n1	inactive
Cc1cc(CN2CCC3(CC2)CC(c2ccccc2)C(=O)N(C2CC2)C3)on1 (stereo not given)	inconclusive: 10 µM [inhibitor, partial curve, poor fit]
COc1ccc(NC(=O)Cn2nnc(C(=O)NCc3cccs3)c2N)cc1	inconclusive: 0.199 µM [inhibitor, single point]

Compound	Potency
CC(C)C(=O)NC1CCN(c2ccnc3ccnn23)C1 (stereo not given)	inactive
CCNc1cc(N2CCC(CCC(=O)NCc3c(C)nn(C)c3C)CC2)ncn1	inconclusive: 12.6 µM [inhibitor, partial curve, poor fit]
CN(C)C(=O)c1cc(-c2ccccc2F)cc2c1OCCN2Cc1cccnc1	inconclusive: 8.91 µM [inhibitor, single point]
N#Cc1ccccc1Nc1ccnc(N2CC3CCC(C2)N3CC(F)(F)F)n1	inactive
COCCN1C(=O)CS(=O)(=O)C12CCN(C(=O)c1cccc(OC)c1C)CC2	inconclusive: 7.94 µM [inhibitor, partial curve]
O=[S+]1([O-])c2cnccc2OC(COc2ccccc2)CN1C1Cc2ccccc2C1 (stereo not given)	inactive
CCC(C)NC(=O)c1ccc(CN2C(=O)NC3(CCS(=O)(=O)CC3)C2=O)cc1 (stereo not given)	inconclusive: 6.31 µM [inhibitor, single point]
CC(C)c1nc2c(c(-c3ccc(Cl)cc3)n1)CCN(Cc1ccc(N(C)C)cc1)CC2	inconclusive: 22.4 µM [inhibitor, single point]
Cc1cc(C)c(OCC(=O)N(Cc2ccc(N(C)C)cc2)Cc2ccco2)c(C)c1	inconclusive: 10 µM [inhibitor, partial curve, poor fit]
COc1cccc(CN2CCc3c(cc(C(=O)NCc4cccs4)n3C)C2)c1	inconclusive: 39.8 µM [inhibitor, single point]
COc1ccc(Nc2ccnc(N3CC4CCC(C3)N4CC(F)(F)F)n2)cc1	inactive
COc1ccc(CCNC(=O)c2ccc(-n3c(C)cc4c3CCC(C)C4)cc2)cc1OC (stereo not given)	inconclusive: 11.2 µM [inhibitor, partial curve, poor fit]
C[S+](=O)([O-])N1CCC(Cn2ccc3c(N4CCOCC4)nc(-c4cccc5[nH]ccc45)cc32)CC1	inconclusive: 22.4 µM [inhibitor, partial curve, poor fit]
COc1ccc(CN2CC(COc3ccccc3)Oc3ncccc3[S+]2(=O)[O-])cc1 (stereo not given)	inactive
CCN1CCc2c(sc(NC(=O)c3ccc(S(=O)(=O)N4CCCC(C)C4)cc3)c2C(=O)OC)C1 (stereo not given)	inconclusive: 28.2 µM [inhibitor, single point]
Cn1cc(-c2ccncc2)cc1C(=O)N1CCN(c2cccc(Cl)c2)CC1	inconclusive: 5.01 µM [inhibitor, full curve, poor fit]
CC1=C[C@@H](CNC(=O)CN(C)C)[C@H](C(C)C)C[C@H]1Cc1nnc(-c2ccccc2F)o1	inconclusive: 25.1 µM [inhibitor, partial curve, poor fit]
Cc1cc(F)cc(CN2CCc3nc(C(=O)NCC4CC4)oc3CC2)c1	inactive
CCOC(=O)CNC(=O)N1CCN(S(=O)(=O)c2ccc3c(ccn3C)c2)CC1	inconclusive: 39.8 µM [inhibitor, partial curve, poor fit]
COC(=O)CNC(=O)N1CCCC1c1nc(CCOCC2CC2)no1 (stereo not given)	inconclusive: 0.708 µM [inhibitor, full curve, poor fit]
COc1ccccc1CNC(=O)c1ccc(N2CCCC2)c(NC(=O)NCc2ccc(C)cc2)c1	inconclusive: 1 µM [inhibitor, full curve]
CCN(c1ccc(OC)cc1)S(=O)(=O)c1ccc2[nH]c3c(c2c1)CCCCC3	inconclusive: 39.8 µM [inhibitor, single point]

Compound	Potency
Cc1noc2c(NCCN3CCOCC3)cc(-c3cccc(C(F)(F)F)c3)nc12	inactive
O=C1CN(Cc2ccc(-c3cccs3)cc2)CCN1c1ccc(Cl)nn1	inconclusive: 39.8 µM [inhibitor, single point]
COc1ccc(C2=NC(c3ccccc3)=Nc3ccc(C)cc3N2)cc1	inactive
Cc1ccc(Nc2ccnc(N3CCCC(C(=O)NCCCc4ccccc4)C3)n2)cc1 (stereo not given)	inconclusive: 39.8 µM [inhibitor, single point]
Cc1c(C#N)c2ccccc2n1CC(=O)NC1CCOC2(CCOCC2)C1 (stereo not given)	inconclusive: 6.31 µM [inhibitor, partial curve, poor fit]
CCc1cc(=O)n(CC(=O)Nc2ccc3c(c2)OCCO3)c(-c2cccc(F)c2)n1	inactive
COCCNc1cc(-c2cccc(C(F)(F)F)c2)nc2c(C)noc12	inactive
COc1ccc(OC)c(NC(=O)c2nc(S(=O)(=O)Cc3ccc(F)cc3)ncc2Cl)c1	inconclusive: 28.2 µM [inhibitor, partial curve, poor fit]
O=C(NCc1ccncc1)c1cc(C2CC2)nc2c1c(C1CCCN1)nn2-c1ccccc1 (stereo not given)	inconclusive: 8.91 µM [inhibitor, single point]
COc1ccc2[nH]c3c(c2c1)CCN(C)C31CCN(C(=O)c2cccc(C)c2)CC1	inconclusive: 28.2 µM [inhibitor, single point]
COCCN1C(=O)CS(=O)C12CCN(C(=O)c1cccc3[nH]ccc13)CC2 (stereo not given)	inactive
Cc1cccc2nc(-c3ccccn3)c(Nc3ccccc3)n12	inconclusive: 31.6 µM [inhibitor, single point]
Cc1cc(N2CCN(C(=O)Cn3nnnc3CN3CCC(C)CC3)CC2)cc(C)n1	inconclusive: 39.8 µM [inhibitor, single point]
O=S(=O)(NCCc1nnc2ccc(SCc3ccccc3Cl)nn12)c1ccccc1	inconclusive: 0.891 µM [inhibitor, full curve, poor fit]
CC(C)c1nc2c(c(-c3ccc(O)cc3)n1)CCN(Cc1ccsc1)CC2	inactive
COc1cccc(C(=O)NC2CCN(c3ccnc4ccnn34)C2)c1 (stereo not given)	inconclusive: 35.5 µM [inhibitor, partial curve, poor fit]
CC(C)C1=NOC2(CCN(C(=O)c3ccc4c(c3)OCO4)C2)C1 (stereo not given)	inactive
COc1cccc(-c2noc(Nc3ccc4c(c3)OCO4)n2)c1	inactive
Cc1ccc(OCC(=O)N2CCC(Cc3nc(-c4ccc(F)cc4)no3)CC2)cc1	inconclusive: 11.2 µM [inhibitor, partial curve, poor fit]
N#Cc1cccc(CN2CCc3ncc(C(=O)NCc4ccccc4)n3CC2)c1	inconclusive: 5.62 µM [inhibitor, full curve, poor fit]
COc1ccccc1N1CCN(C(=O)C[C@@H]2CCNC[C@@H]2Cc2cc(COc3ccccc3)on2)CC1	inconclusive: 44.7 µM [inhibitor, single point]
